From PubChem BioAssay AID1347073 (National Center for Advancing Translational Sciences (NCATS), 2019)
Among all 45,000 compounds or so, about 200 (0.44%) were called active. Another 7% or so got no clear call; they are omitted. Calls follow the shape of the dose curve; as a rule, active = well fitted activation curve with a large enough effect; inconclusive = small, poorly fitted or top-dose-only effect; inactive = no such curve, though single readings can be large or run the other way. Some of the results follow.

Assay: qHTS of TDP-43 Inhibitors: NCGC Sytravon Library Screen; also: 0% is about no effect; nearly all actives have a fitted effect of over 55% in size
Conditions: yeast TDP-43 toxicity rescue, BacTiter-Glo growth, 24 h; series mostly up to 46.1 µM; growth rescue (activation): at the top concentration
Description: The goal of this project is to identify new chemical probes capable of reversing the toxicity associated with TDP-43 which is associated with frontotemporal lobar degeneration and amyotrophic lateral sclerosis. These compounds will provide a complementary approach to deciphering the tangled mechanisms of toxicity and protection that we have uncovered through genome-wide genetic screens and are beginning to uncover in a large-scale proteomics analysis with mass spectroscopy. To this end, a miniaturized assay was developed to be screened against the Molecular Libraries Small Molecule Repository (MLSMR) to discover TDP-43 inhibitors. Please note that in the set-up this yeast-based assay compounds that inhibit as TDP-43, have a read-out as activators. NIH Chemical Genomics Center [NCGC] NIH Molecular Libraries Probe Centers Network [MLPCN] Assay Submitter (PI): Susan Lindquist, Whitehead Institute/MIT MLPCN Grant: R21 NS060957
Dispense 2.5 microL yeast galactose medium per 1536-well plate, pin compound, dispense 2.5 microL TDP-43 expressing yeast in galactose medium at OD600=0.02 (pregrown in raffinose medium to mid-log phase) per well, incubate for 24 hr at 30 deg C, and cell growth will be measured using 5 microL of Bactiter/Glo reagent to entire plate and read using Luminescence Protocol in ViewLux.

SMILES | growth rescue (activation)
Cc1ccc(CN2C(=O)CCC2C(=O)NCCN(CC(C)C)CC(C)C)cc1 (centres undefined) | inactive: 27%
CCC(C)NC(=O)Cn1cnc2sc(C)c(S(=O)(=O)N3CCN(c4ncccn4)CC3)c2c1=O (centres undefined) | inactive: 2.91%
CCn1nnc2cc(C(=O)O)ccc21 | inactive: 1.78%
Nc1nonc1C(=O)N1CCCC1 | inactive: 2.47%
CN(Cc1ccccc1)C(=O)c1ccc(Nc2nc(C(N)COCc3ccccc3)cs2)nc1 (centres undefined) | inactive: 12.1%
CC1CCCC(C)N1NC(=O)Cc1ccccc1 (centres undefined) | inactive: -20.7%
Cc1[nH]c2ccccc2c1/C=N/NC(=O)CNC(=O)c1ccc2c(c1)OCCO2 | inactive: -2.98%
C[C@H](NS(=O)(=O)c1ccc(Cl)cc1)C(=O)OCC(=O)NC(=O)Nc1ccc2c(c1)OCCO2 | inactive: 4.92%
CCc1cccc(CC)c1N(COC)C(=O)Cn1cnc2ccccc21 | inactive: 6.5%
CN(C)c1ccc(/C=C/c2ccncc2)cc1 | inactive: -21.1%
COc1ccc(/C=C/C(=O)NC(=S)Nc2ccc(S(=O)(=O)Nc3cc(C)on3)cc2)cc1 | inactive: -0.523%
N#C/C(=C\C=C\c1ccccc1)C(=O)N1CCCC1 | inactive: -13.4%
CCc1cc2c(=O)c(-c3nc(C)cs3)c(CCCC(=O)O)oc2cc1O | inactive: 7.18%
CC(=O)/C=C1\N(C)c2ccc(C)cc2C1(C)C | inactive: 11.4%
O=C(c1ccccc1)c1ccc(OCC(O)CNC2CCCc3ccccc32)cc1 (centres undefined) | inactive: -8.67%
O=C1OCC(c2ccc(Cl)s2)=C1c1ccccc1[N+](=O)[O-] | inactive: -16.4%
COCc1nnc(NC(=O)C2CC(=O)N(CCc3ccc(F)cc3)C2)s1 (centres undefined) | inactive: 0.994%
O=C(COC(=O)c1cccs1)Nc1cccc(S(=O)(=O)N2CCCCC2)c1 | inactive: 21.6%
Cc1cnc(C(=O)OCC(=O)Nc2cc(Cl)ccc2C#N)cn1 | inactive: 16.4%
CCOC(=O)c1ccc(NC(=S)NN)cc1 | inactive: 15.4%
O=C(CN1C(=O)NC2(CCCCC2)C1=O)Nc1cc(C(F)(F)F)ccc1N1CCOCC1 | inactive: 17.1%
CC(C)CN(CC(C)C)S(=O)(=O)N1CCC(C(=O)NCc2ccc3c(c2)OCO3)CC1 | inactive: -1.71%
CC(OC(=O)c1cc(=O)[nH]c2ccccc12)C(=O)c1ccccc1 (centres undefined) | inactive: -5.27%
O=C(Nc1cccc(Cl)c1)Nc1cc(S(=O)(=O)N2CCCCC2)ccc1Cl | inactive: -0.561%
CC1CCc2sc(C(=O)OCC(=O)NCc3ccc(F)cc3)cc2C1 (centres undefined) | inactive: -2.78%
CC(OC(=O)C1=COCCO1)C(=O)c1ccc(Br)cc1 (centres undefined) | inactive: 0.719%
O=CN1CCN(C(=O)CN2C(=O)c3ccccc3C2=O)CC1 | inactive: 8.49%

SMILES | growth rescue (activation)
O=C(CCc1ccccc1)NNC(=O)c1ccc(Br)cc1 | inactive: -21.4%
COc1ccc(OC)c(NC(=O)C(=S)NC2CCCCC2)c1 | inactive: 25%
Cn1cnnc1SCC(=O)N1CCC(Cc2ccccc2)CC1 | inactive: 22.7%
CCOc1ccccc1-n1c(=S)sc2c(=O)n(-c3ccccc3)c(=S)[nH]c21 | inactive: 3.27%
CN(C)C(=O)CSc1nc2cc(S(=O)(=O)N3CCOCC3)ccc2o1 | inactive: 3.18%
O=C(OCC(=O)N1CCCC1)c1ccc(O)cc1 | inactive: -1.09%
CN1CCN(S(=O)(=O)c2ccc(NC(=S)NC(=O)C3CCCCC3)cc2)CC1 | inactive: 1.17%
O=C(CCc1ccccc1)Nc1ncc2c(n1)CCCC2=O | inactive: -2.34%
O=C1C2C3C=CC(C4CC34)C2C(=O)N1/N=C/c1ccc([N+](=O)[O-])s1 (centres undefined) | inactive: 11.1%
CCc1nc(SCC(=O)Nc2cccc3ccccc23)[nH]c(=O)c1C | inactive: -6.15%
CCC(Sc1nc2cc(OC)c(OC)cc2c(=O)n1CCc1ccc(S(N)(=O)=O)cc1)C(=O)NCCOC (centres undefined) | inactive: 8.77%
Cc1nc2c(c(=O)n1CCC(C)C)c1nc3ccccc3nc1n2CC1CCCO1 (centres undefined) | inactive: -7.82%
Cc1c(C(=O)N/N=C/c2cccnc2)sc(N)c1C#N | inactive: 9.58%
CC1(C)OC(=O)C(=CSc2ccc(C(C)(C)C)cc2)C(=O)O1 | inactive: -0.58%
Cn1c(=O)c2c(-c3ccccc3)n(Cc3cccnc3)cc2n(C)c1=O | inactive: -7.72%
COc1ccc(CN2CCNC(=O)C2CC(=O)NCCSc2nccn2C)c(OC)c1 (centres undefined) | inactive: 8.28%
COc1cc(C(=O)OCC(=O)N2CCOCC2)c([N+](=O)[O-])cc1OC | inactive: 4.46%
CN(Cc1ccccc1)C(=C(Cl)Cl)/C(=C1/NCCN1C)[N+](=O)[O-] | inactive: -3.7%
O=C1c2ccc(Oc3ccc([N+](=O)[O-])cc3)cc2C(=O)N1c1ccncc1 | inactive: 0.501%
CCN(CC)CCCN1C(=O)C(O)=C(C(=O)c2ccc(C)o2)C1c1ccc(C)o1 (centres undefined) | inactive: -9.41%
O=C1C=C(N2CCOCC2)c2ccccc2C1=O | inactive: -7.79%
O=C(O)C1CC=C(Cl)CC1C(=O)NCC1OCCc2ccccc21 (centres undefined) | inactive: 11%
COC(=O)C1(O)CC(C(C)C)=NN1C(=O)c1ccccc1 (centres undefined) | inactive: 4.18%
C/C(=N\NC(=S)NC1CCCCC1)c1ccccc1 | inactive: 17.2%
NS(=O)(=O)c1cc(C(=O)Nc2ccc3c(c2)OCCCO3)ccc1Cl | inactive: 6.37%
CCOc1cccc(/C=C/c2ccc3cccc(O)c3n2)c1O | inactive: 2.18%
Cc1ccc(OCC(=O)Nc2ccc3c(c2)OC(F)(F)O3)c([N+](=O)[O-])n1 | inactive: 6.62%
